In PubChem BioAssay AID1508642 (National Center for Advancing Translational Sciences (NCATS), 2021):
Among all 43,000 compounds or so, about 200 (0.47%) were called active. About 12% were inconclusive and are not listed. Calls come from the whole dose curve; as a rule, active = well fitted cell-killing curve with a large enough effect; inconclusive = small, poorly fitted or top-dose-only effect, or effect the other way; inactive = flat fitted curve, though single readings scatter. This is one part of the list.

assay: Cell viability qHTS assay in S16 Pmp22-F2sN cells; details: S16 Pmp22-F2sN Schwann cells (luciferase reporters placed in the Pmp22 gene) viability, CellTiter-Glo, 24 h; series mostly up to 57.5 µM; activity change, negative = cytotoxicity: at the top concentration; note: nearly all actives have a fitted effect of over 65% in size
Method in brief: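 Rat S16 Schwann reporter line, 24 h treatment with library compounds delivered at 23 nL per well. Cell viability by CellTiter-Glo luminescence.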
% is set by controls: 0 for no effect and ±100 for the full control effect; potency is the fitted concentration of half-maximal effect.

| Compound | activity change, negative = cytotoxicity | Potency |
| --- | --- | --- |
| Cc1ccc(C(=O)Nc2nnc(S(=O)(=O)N3c4ccccc4CC3C)s2)cc1 (stereo not drawn) | inactive: 7.9% | – |
| CCOC(=O)c1ccc(NC(=O)c2c(NCc3cccs3)sc3c2CCCC3)cc1 | inactive: -27% | – |
| Cn1c(=O)n(C)c2cc(N3CCOCC3)c(NC(=O)c3ccccc3Br)cc21 | inactive: -4.92% | – |
| COc1ccc(OC(=O)c2nc(SCc3ccc(F)cc3)ncc2Cl)cc1 | inactive: 10.9% | – |
| Cc1ccc(C2=NN(CC(=O)NCCC(C)C)C(=O)CC2)cc1 | inactive: 17.7% | – |
| CCOC(=O)c1cc(OC(=O)c2ccc(C)cc2)n(-c2ccccc2)n1 | inactive: -2.34% | – |
| COc1cccc(-c2nnc(-c3ccccc3NC(=O)c3cccc(C(F)(F)F)c3)o2)c1 | inactive: 1.08% | – |
| COc1ccc(CNC(=O)CN2C(=O)CSc3ccc(S(=O)(=O)N4CCOCC4)cc32)c(OC)c1 | inactive: -1.36% | – |
| COc1cccc(CNC(=O)c2cc(S(=O)(=O)N3CCCCC3)cn2C)c1 | inactive: -4.46% | – |
| CCOc1ccc(CNC(=O)c2ccc3nc(C(C)C)oc3c2)cc1 | inactive: -1.62% | – |
| COC(=O)c1ccc(NC(=O)NCCn2nnc3cc(S(=O)(=O)N(C)C)ccc32)cc1 | inactive: -23.4% | – |
| COc1ccc(Nc2cc(C(=O)NC3CCC(C)CC3)c3ccccc3n2)cc1OC (stereo not drawn) | inactive: 14.4% | – |
| Cc1c(C(=O)N2CCCCCC2)c(S(=O)(=O)NCc2ccc(Br)cc2)c(C)n1C | inactive: -4.5% | – |
| Cc1ccc(-c2nc3ccccn3c2Nc2ccccc2C)s1 | inactive: -1.48% | – |
| Cc1oc2ncnc(N3CCOCC3)c2c1C(=O)N(Cc1ccccc1)C(C)C | inactive: 2.2% | – |
| COc1ccc(S(=O)(=O)NCC(c2ccco2)S(=O)(=O)c2cccs2)cc1C (stereo not drawn) | – | active: 22.4 µM |
| Cn1c(=O)c(=O)n(C)c2cc(S(=O)(=O)CCC(=O)Nc3ccc(F)cc3)ccc21 | inactive: 0.567% | – |
| Cc1ccc(-c2nnn3c2nc(NCCc2ccc(Cl)cc2)c2ccccc23)cc1 | inactive: 18% | – |
| CCN(C(=O)c1coc(=O)c2ccccc12)c1ccccc1C | inactive: 15.3% | – |
| CC(C)c1ccc(C(=O)Nc2cc(-c3ccccc3F)nn2-c2ccccc2)cc1 | inactive: -5.9% | – |
| CCCOc1ccc(CNC(=O)Cn2ncn3c(cc4sc(CC)cc43)c2=O)cc1 | inactive: 13.4% | – |
| Cc1ccccc1Nc1ncnc2c1cnn2C | inactive: -17.1% | – |
| CCCCN(CC)CCNC(=O)c1cc2c(=O)[nH]c3ccccc3c2n1C | inactive: 14.1% | – |
| Cc1ccccc1OCC(=O)Nc1ccc(-c2nc3ncccc3o2)cc1 | inactive: -1.1% | – |
| CCOc1ccc(CNCc2c(C(=O)O)n(Cc3ccc(C)cc3)c3cc(C)ccc23)cc1 | inactive: -2.63% | – |

| Compound | activity change, negative = cytotoxicity | Potency |
| --- | --- | --- |
| Cc1c(Cl)cccc1NC(=O)CN(CCc1ccccc1)S(=O)(=O)c1ccccc1 | inactive: -1.29% | – |
| CCCc1nc2ccccc2n2c(-c3ccccc3)c3c(=O)n(C)c(=O)n(C)c3c12 | inactive: 8.55% | – |
| O=C(NCc1ccc(F)cc1)c1ccc2c(O)c(S(=O)(=O)c3ccccc3)c(=O)[nH]c2c1 | inactive: 0.886% | – |
| CCCCn1c(NCc2ccc(OC)cc2O)nc2ccccc21 | inactive: -0.781% | – |
| Cc1ccccc1NS(=O)(=O)c1ccc2[nH]cc(C(=O)N3CCCCC3)c(=O)c2c1 | inactive: 2.61% | – |
| COc1ccc(C)cc1-n1nnc(-c2nc(-c3ccccc3Cl)no2)c1N | inactive: -22.2% | – |
| CCCCn1nc(NC(=O)c2cccc(Cl)c2)c2cc3ccccc3nc21 | inactive: 12.2% | – |
| COc1ccc(N2CC(NC(=O)CCCc3ccccc3)CC2=O)cc1 (stereo not drawn) | inactive: -11.6% | – |
| COC(=O)c1ccccc1NC(=O)Nc1nnc(N2CCC(C)CC2)s1 | inactive: -1% | – |
| CCOc1cc(CNC(=O)NC2COc3ccc(OC)cc3C2)cc(OCC)c1OCC (stereo not drawn) | inactive: 4.07% | – |
| Cc1ccc(C(=O)Nc2ccc(-c3nc4ccccc4s3)cc2C)cc1C | inactive: -4.35% | – |
| Cc1csc2nc(COc3ccccc3NC(=O)c3ccc(C(C)(C)C)cc3)cc(=O)n12 | inactive: 24.1% | – |
| CCNC(=O)c1nn(-c2ccccc2C)nc1CO | inactive: -3.84% | – |
| Cc1cccc(CNC(=O)CCCn2c(=O)c3cccn3c3ccc(F)cc32)c1 | inactive: -13.3% | – |
| Cc1cccc2c1-c1sc(C(=O)N(C)c3cccc(C(F)(F)F)c3)cc1CO2 | inactive: -14% | – |
| Cc1ccccc1OC(=O)CSc1nnc(-c2ccc(F)cc2)o1 | inactive: 8.48% | – |
| Cc1c(NC(=O)c2nc3ccccc3nc2N2CCCCC2)cccc1[N+](=O)[O-] | inactive: 0.16% | – |
| O=C(Cn1c(=O)n(-c2ccccc2Cl)c(=O)c2sc3ccccc3c21)NC1CCCCC1 | inactive: 3.5% | – |
| Cc1ccc(CN2CCN(CC(=O)Nc3ccc(C)c(C)c3)S2(=O)=O)cc1 | inactive: -0.136% | – |
| Cc1ccccc1-n1nc(CO)c(C(=O)NCc2cccs2)n1 | inactive: 3.57% | – |
| N#Cc1cccc(NC(=O)C2CCN(S(=O)(=O)c3ccc4[nH]c(=O)ccc4c3)CC2)c1 | inactive: 4.26% | – |
| CCOC(=O)C1CCN(C(=O)c2ccc3c(=O)n4nc(Nc5cc(C)ccc5C)sc4nc3c2)CC1 | inactive: -0.241% | – |
| Cc1ccc(CNC(=O)c2cc3c(=O)n(Cc4cccnc4)ccc3nc2C)cc1 | inactive: 4.82% | – |
| CCOc1cccc(C2c3c(-c4cc(C)ccc4O)n[nH]c3C(=O)N2Cc2ccco2)c1 (stereo not drawn) | inactive: -23.2% | – |
| COc1ccc(OC)c(CCNC(=O)c2csc3c2CCCCC3)c1 | inactive: -15.1% | – |

| Compound | activity change, negative = cytotoxicity | Potency |
| --- | --- | --- |
| Cc1ccc(-c2cc(C(F)(F)F)c(C#N)c(SCC(=O)Nc3ccccc3)n2)cc1 | inactive: 3.62% | – |
| Cc1cccc(C)c1OCc1nc2c3c(-c4ccccc4)c(-c4ccccc4)oc3ncn2n1 | inactive: 1.67% | – |
| COc1cccc(NC(=O)C2CCN(c3nn4cc(-c5ccc(F)cc5)nc4s3)CC2)c1 | inactive: 2.8% | – |
| CCn1cc(C(=O)N2CCN(c3ccc(C(C)=O)cc3)CC2)c2cc(OC)c(OC)cc2c1=O | inactive: 11.3% | – |
| Cc1ccc(NC(=O)Cn2c(=O)oc3cc(S(=O)(=O)NCc4ccccc4)ccc32)cc1 | inactive: -3.42% | – |
| CCOc1ccc(CCNC(=O)CN2N=C(c3ccccc3)CCC2=O)cc1OCC | inactive: 3.25% | – |
| Cc1ccc2nc(N(Cc3cccnc3)C(=O)CCS(=O)(=O)c3ccccc3)sc2c1 | – | active: 17.8 µM |
| CC(=O)c1ccc(NC(=O)CSc2nc(-c3cccc(F)c3)nc3c2c(=O)n(C)c(=O)n3C)cc1 | inactive: -14.9% | – |
| COc1ccc(CNC(=O)c2ccc3c(c2)nc2n3CCOC2)c(OC)c1 | inactive: 6.18% | – |
| Cc1ccc(CN(Cc2ccco2)C(=O)COc2ccc(C(C)C)cc2)cc1 | inactive: -3.23% | – |
| CN1C(C(=O)Nc2ccc(F)cc2F)=CC(c2ccc3c(c2)OCO3)=NS1(=O)=O | inactive: 9.44% | – |
| Cc1cc(C)cc(NC(=O)CN2C(=O)c3ccccc3Sc3ncccc32)c1 | inactive: 3.45% | – |
| CCCCN(CC)CCCNC(=O)c1cc2c(=O)[nH]c3ccccc3c2s1 | inactive: 3.46% | – |
| Cc1ccc2c(c1)C(c1ccc(F)cc1)N(C(=O)c1ccc(OC(C)C)cc1)CC(=O)N2 (stereo not drawn) | inactive: -2.41% | – |
| Cc1ccccc1C(=O)Nc1cc(-c2ccc(Cl)cc2)nn1-c1ccccc1 | inactive: 2.36% | – |
| Cc1ccc(-n2nnc(C(=O)Nc3cc(F)ccc3F)c2C)cc1F | inactive: 7.84% | – |
| COc1ccccc1NC(=O)c1sc2nc3c(cc2c1N)CCCCCC3 | inactive: 11.8% | – |
| O=C(c1ccccc1)N1c2ncnn2C2(CCCCC2)[C@@H]2CCCC[C@@H]21 | inactive: -4.03% | – |
| COc1ccccc1N1CCN(C(=O)CN2C(=O)COc3ccc(S(=O)(=O)N4CCC(C)CC4)cc32)CC1 | inactive: 14.4% | – |
| Cc1ccc(NC(=O)C2CCN(c3cc(C)nc4c(-c5ccc(Cl)cc5)c(C)nn34)CC2)c(C)c1 | inactive: 0.352% | – |
| COc1ccc(C(=O)CSc2c(C(C)C)cnc3c2c(=O)n(C)c(=O)n3C)cc1 | inactive: 4.67% | – |
| CCOc1ccc(NC(=O)CSc2nc3c(oc4ccccc43)c(=O)n2CCOC)cc1 | inactive: 0.39% | – |
| Cc1ccn2c(=O)cc(COc3ccc(NC(=O)c4ccccc4F)cc3)nc2c1 | inactive: -1.27% | – |
| Cn1ncc2nc(SCC(=O)Nc3ccc(Br)cc3F)n(Cc3ccccc3)c(=O)c21 | inactive: -1.9% | – |
| COc1cc2[nH]c(=O)n(CCCC(=O)N3CCN(c4cccc(C(F)(F)F)c4)CC3)c(=O)c2cc1OC | inactive: 4.97% | – |

| Compound | activity change, negative = cytotoxicity | Potency |
| --- | --- | --- |
| CC(C)(C)C(=O)NCCc1csc2nc(-c3ccc(F)cc3)nn12 | inactive: 2.99% | – |
| Cc1ccc(NC(=O)C(Cc2c[nH]c3ccccc23)NC(=O)OCC(C)C)cc1 (stereo not drawn) | inactive: -20.4% | – |
| COc1ccc(/C=C\C(=O)NC2CC(=O)N(c3ccccc3)C2)cc1OC (stereo not drawn) | inactive: -0.124% | – |
| COc1cc(NC(=O)c2nc(-c3ccncc3)no2)cc(OC)c1OC | inactive: -11.6% | – |
| Cc1ccc(CN(C(=O)COc2c(C)cccc2C)C2CCS(=O)(=O)C2)o1 (stereo not drawn) | inactive: 0.264% | – |
| COC(=O)c1nc2n(n1)C(c1cc(OC)ccc1OC)C(C(=O)Nc1ccc(C)cc1C)=C(C)N2 (stereo not drawn) | inactive: -2.7% | – |
| Cc1ccc2oc3c(c(=O)c2c1)C1(C(=O)N(C)c2ccccc21)N(CCCO)C3=O (stereo not drawn) | inactive: 1.2% | – |
| COc1ccc2oc(-c3ccc(C)c(NC(=O)COc4cc(C)cc(C)c4)c3)nc2c1 | inactive: 5.59% | – |
| O=C(CCS(=O)(=O)c1cccc2nsnc12)Nc1ccc(F)cc1 | inactive: 7.52% | – |
| Cc1ccc(-c2cc(C(=O)Oc3ccccc3)c3cc(C)ccc3n2)cc1 | inactive: -0.0076% | – |
| COc1ccc2c(c1)c1c(c(=O)n(-c3cccc(Cl)c3)c(=O)n1CC(=O)N1CCCC1)n2C | inactive: -9.84% | – |
| CCOC(=O)Cn1nc(C)c(NC(=O)COc2ccc(Cl)cc2C)c1C | inactive: -3.77% | – |
| CCOc1ccccc1NC(=O)Cn1ccn(Cc2ccc(C)cc2)c(=O)c1=O | inactive: -13.7% | – |
| CCC1CCCCN1CCCNC(=O)CN1C(=O)CSc2ccc(S(=O)(=O)N3CCOCC3)cc21 (stereo not drawn) | inactive: -1.66% | – |
| Cc1cc(C)c(NC(=O)Nc2ccc3snnc3c2)c(C)c1 | inactive: -0.927% | – |
| Clc1ccccc1CNc1ncnc2c1c(-c1ccccc1)cn2-c1ccccc1 | inactive: -14.3% | – |
| CCC(C)NC(=O)CSc1nc2c(sc3ccccc32)c(=O)n1Cc1ccccc1Cl (stereo not drawn) | inactive: -0.061% | – |
| Cc1ccc(C)c(CSc2nc3ccncc3n2CC(=O)Nc2ccc(N(C)C)cc2)c1 | inactive: -10.9% | – |
| Cc1cccc2nc(-c3cccc(NS(=O)(=O)c4ccccc4)c3)cn12 | inactive: -4.44% | – |
| CC(=O)c1ccc(NC(=O)COCc2cc(-c3ccco3)on2)cc1 | inactive: 14.1% | – |
| COc1cccc(N2CC(NC(=O)c3cccc(OC)c3OC)CC2=O)c1 (stereo not drawn) | inactive: 10.9% | – |
| Cc1ccccc1OCc1nnc(SCc2cc(=O)c3cccc(F)c3[nH]2)n1C | inactive: -5.5% | – |
| COCCCNC(=O)CSc1nc2c(sc3ccccc32)c(=O)n1CCCC(=O)NCCOC | inactive: -0.52% | – |
